Hit rate of the full screen: of about 390,000 compounds, about 17,000 (4.4%) were called active. Inconclusive results, whose numbers are uncertain, are shown with a selection of clear calls. Calls follow the shape of the dose curve; as a rule, active = well fitted inhibition curve with a large enough effect; inconclusive = small, poorly fitted or top-dose-only effect; inactive = no such curve, though single readings can be large or run the other way. Potencies of inconclusive entries are doubtful fits and often do not repeat.
Each compound was assayed against Lysine-specific demethylase 4A (Homo sapiens) (UniProt O75164) (assay: qHTS Assay for Inhibitors of JMJD2A-Tudor Domain). Conditions: AlphaScreen JMJD2A-Tudor / H3K4me3 peptide binding; series mostly up to 114 µM.
Also: nearly all actives have a fitted effect of over 50% in size.
Potency is read from the fitted curve at half-maximal effect; tags tell the direction and shape of the fitted curve.

Chain of UniProt O75164 (O75164 whole entry, looked up, the tested form may be a part): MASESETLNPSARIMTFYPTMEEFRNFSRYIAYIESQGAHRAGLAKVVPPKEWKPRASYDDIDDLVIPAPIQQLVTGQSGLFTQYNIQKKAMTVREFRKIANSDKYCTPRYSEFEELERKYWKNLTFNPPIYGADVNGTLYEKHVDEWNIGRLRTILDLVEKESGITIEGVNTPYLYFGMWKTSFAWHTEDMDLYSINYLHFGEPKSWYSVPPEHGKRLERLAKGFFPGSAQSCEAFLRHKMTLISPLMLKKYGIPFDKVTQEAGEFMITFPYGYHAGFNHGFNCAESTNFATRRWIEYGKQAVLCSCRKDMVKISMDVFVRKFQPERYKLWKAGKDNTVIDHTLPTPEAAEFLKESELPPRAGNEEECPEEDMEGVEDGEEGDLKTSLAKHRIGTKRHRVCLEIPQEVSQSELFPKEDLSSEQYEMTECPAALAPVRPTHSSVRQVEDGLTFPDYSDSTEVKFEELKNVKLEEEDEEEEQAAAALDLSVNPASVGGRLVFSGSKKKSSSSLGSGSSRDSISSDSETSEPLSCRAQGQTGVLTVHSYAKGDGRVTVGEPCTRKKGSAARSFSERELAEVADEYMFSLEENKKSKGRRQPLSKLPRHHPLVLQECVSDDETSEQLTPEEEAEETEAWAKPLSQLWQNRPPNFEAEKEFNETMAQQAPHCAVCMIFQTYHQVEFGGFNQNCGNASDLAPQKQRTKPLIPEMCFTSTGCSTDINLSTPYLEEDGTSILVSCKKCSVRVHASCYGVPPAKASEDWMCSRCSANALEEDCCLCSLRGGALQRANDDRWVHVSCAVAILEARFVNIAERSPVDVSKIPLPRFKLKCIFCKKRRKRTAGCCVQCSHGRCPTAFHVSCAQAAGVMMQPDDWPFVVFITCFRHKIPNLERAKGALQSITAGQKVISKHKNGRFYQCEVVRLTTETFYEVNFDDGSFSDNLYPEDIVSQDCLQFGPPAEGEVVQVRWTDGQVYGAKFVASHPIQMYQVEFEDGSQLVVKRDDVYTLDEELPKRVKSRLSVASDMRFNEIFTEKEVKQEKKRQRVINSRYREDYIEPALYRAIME

**Q.** Which Potency does the source give for CCc1ccccc1NC(=O)C(C)n1nc(-c2ccc(C)c(C)c2)ccc1=O (centres undefined) here?
**A.** inconclusive: 89.1 µM [inhibitor, partial curve, poor fit]

**Q.** CCN(CC)c1cc(C)c2cc(NC(=O)c3ccc(Br)o3)ccc2n1 was tested. Which Potency did it give?
**A.** inconclusive: 50.1 µM [inhibitor, partial curve]

**Q.** With CC1=NOC(=O)/C1=C\c1ccc(-c2cc(Cl)ccc2Cl)o1 as the compound, how does the Potency read?
**A.** inconclusive: 10 µM [inhibitor, full curve]

**Q.** With Cc1ccc(NC(=S)NNC(=S)Nc2cccc(C(F)(F)F)c2)cc1 as the compound, how does the Potency read?
**A.** inconclusive: 35.5 µM [inhibitor, partial curve]

**Q.** How did the Potency turn out when COc1ccc(-c2csc(N(CCCN(C)C)C(=O)c3ccccc3C)n2)cc1 was run?
**A.** inconclusive: 50.1 µM [inhibitor, partial curve]

**Q.** How did the Potency turn out when Cc1ccc(C)c(Nc2nc3nonc3nc2Nc2cccc(C)c2C)c1 was run?
**A.** inconclusive: 14.1 µM [inhibitor, full curve]

**Q.** Which Potency does the source give for COc1ccc(C)cc1-n1nnnc1SCC(=O)c1cc(C)n(Cc2ccco2)c1C here?
**A.** inconclusive: 89.1 µM [inhibitor, partial curve]

**Q.** How did the Potency turn out when CC1=C(C(=O)OCC2CCCCC2)C(c2ccc(Cl)cc2Cl)CC(=O)N1 (centres undefined) was run?
**A.** inactive

**Q.** Which Potency does the source give for Cc1ccc(C(=O)NC(NC(=S)Nc2ccc(S(N)(=O)=O)cc2)C(Cl)(Cl)Cl)cc1 (centres undefined) here?
**A.** inconclusive: 56.2 µM [inhibitor, partial curve]

**Q.** With O=C(CSc1ccc(-c2ccncc2)nn1)c1ccc(Cl)cc1 as the compound, how does the Potency read?
**A.** inactive

**Q.** How did the Potency turn out when Cc1cccc(OCC(=O)N(Cc2ccc(C(C)C)cc2)Cc2ccco2)c1C was run?
**A.** inactive

**Q.** How did the Potency turn out when CCN1CCN(CCCOc2ccccc2-c2ccccc2)CC1 was run?
**A.** active: 22.4 µM

**Q.** Which Potency does the source give for O=C(Nc1nnc(S(=O)(=O)N2CCCC2)s1)c1ccccc1F here?
**A.** inconclusive: 56.2 µM [inhibitor, partial curve]

**Q.** Which Potency does the source give for CCOc1ccc(C(C)=O)cc1COC(=O)c1ccccc1C(=O)N(C)Cc1ccccc1 here?
**A.** inactive

**Q.** CC(C)[C@H]1CN=C2N(CCNC(=O)CCC3CCCCC3)[C@H](Cc3ccc(O)cc3)CN21 was tested. Which Potency did it give?
**A.** inconclusive: 89.1 µM [inhibitor, single point]

**Q.** CCCC[C@@H]1CNC(=S)N1CCc1cccc(F)c1 was tested. Which Potency did it give?
**A.** inconclusive: 2.82 µM [inhibitor, partial curve, poor fit]

**Q.** How did the Potency turn out when COc1ccc(NS(=O)(=O)c2cc([N+](=O)[O-])ccc2N/N=C/c2c(C)[nH]c3ccccc23)cc1 was run?
**A.** inactive

**Q.** Which Potency does the source give for CCOC(=O)c1cc(-c2ccc(F)cc2)n(CCC(=O)NCc2ccccc2OC)c1C here?
**A.** inconclusive: 35.5 µM [inhibitor, full curve]

**Q.** For Cc1c(O)ccc(C(=O)CN2CCN(c3ccccc3)CC2)c1O, which Potency is on record?
**A.** inactive

From PubChem BioAssay AID504339 (National Center for Advancing Translational Sciences (NCATS), 2011)
